Drawing on the supplement of paper PMC10126150, this text covers switch fluorescence ratio for 120 sequences.

In the data set the test system is ATP. As to the kind of experiment: switch fluorescence ratio, 500 uM ATP over buffer (Cy3 cluster intensity, sum of 5 cycles each) (fold (ratio)); higher = stronger signal-on switching upon ATP binding; sequences stand for … in TCGTCGGCAGCGTCAGATGTGTATAAGAGACAGTTTTTTTTTTTTTTTTTTTTTTTTT…TC. The settings on record: aptamer strand: ATP DNA aptamer (quencher-CACCTGGGGGAGTATTGCGGAGGAAGG + anchor), 100 nM annealed; ATP concentration: 500 uM; one replicate. The method, boiled down:
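After annealing to 100 nM quencher-labelled ATP aptamer, Cy3-labelled switching-strand clusters on a modified Illumina MiSeq flow-cell were imaged in selection buffer. A second image followed after 15 min with 500 uM ATP at 22 °C, and five such buffer/ATP cycles were done, each separated by NaOH stripping and re-annealing. The fluorescence ratio, averaged per switch-domain sequence, is summed target-cycle over summed buffer-cycle Cy3 intensity per cluster, with clusters outside 100-1000 RFU excluded.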

Values marked as one replicate rest on one cluster of the flow cell; about a third of the high ones do not repeat.
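Also: ATP exposure 15 min at 22 °C before imaging.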

Regarding CCCGGGGAAT, the switch fluorescence ratio is 1.86. With GTAGCTGCTG the figure was 1. For the sequence ACGGGGTATA, the switch fluorescence ratio was 1.04.

For CAAGTTAGAA, the switch fluorescence ratio was 1.01. With TTGGTTTGCA the figure was 1.01. With AATACATTTC the figure was 1.06.

As for ATTAATACTG, the switch fluorescence ratio stood at 1.01. With AGTGGATTCG the figure was 1.02.

Consider TGGAACGGGC, for which the switch fluorescence ratio was 0.99.

For TTCAGTCGGC, the switch fluorescence ratio worked out at 0.967.

As to CTTCCAACAG, the switch fluorescence ratio stood at 1.46. For AGCACTTGTG the value was 1.02. GATTACTTC: the switch fluorescence ratio turned out to be 1.03. For AAAAAGGTAC the value was 1.61; for ACTACGAAAG, 1.12; for TAATCATA, 1.04. With GATATTTGTC the figure was 1.04. With TCTTTGTCTG the figure was 1.02. As for TGGCGTCGTG, the switch fluorescence ratio is 0.947. For GATCGTCAT the value was 0.976. For GATGGACTCT the value was 0.994. As for TATCTGAACC, the switch fluorescence ratio amounted to 1.04. For GCTACGGCGG the value was 1.04; for TCGCCATTCA, 1.05; for TATGGGAAT, 0.974. For ATGATCAAAG the value was 1.02; for GAGGTCAACG, 1.01. With CGCTTTGAGA the figure was 0.996. Consider TTATGTCACT, for which the switch fluorescence ratio amounted to 0.992. For CTGCTTTTCA the value was 1.03; for CTGTTGCCTC, 1.02.

With AGGACAAGCG, the switch fluorescence ratio was found to be 1.17. For ACTCCAGCGA the value was 7.17; for TACTCTGGCT, 0.998; for CTCTAGTATT, 1.01. For GAGCTCAGTT the value was 0.999; for TAAGAGCAA, 1.64; for GGCCATT, 1.05.

As to CAGCGGTTCA, the switch fluorescence ratio was determined as 1.04. With GTTTGTTATA the figure was 1.01; with TGATCTGGAG, 0.977; with TAAAACCCAG, 1.05.

As for GGCATGTAAT, the switch fluorescence ratio was determined as 0.99.

Regarding GTGCCGGGAG, the switch fluorescence ratio turned out to be 0.982. With AAAGATGTAT the figure was 1.05; with AGAGGATGAG, 0.952; with GACCCCAATA, 1.48. With AGTCAGGTTA, the switch fluorescence ratio is 0.995. As for TGACAGTAAT, the switch fluorescence ratio is 1.08. Regarding GTACTGAGTG, the switch fluorescence ratio was 1.06. As for ACATGGGCAC, the switch fluorescence ratio was determined as 1.

In the case of GCTGAGAAAG, the switch fluorescence ratio stood at 0.949. With TGACCTCAGT the figure was 1.02; with TACAGCTCGG, 0.974; with GCCGCAAGTT, 2.78. For GCTTTAATAC the value was 1.78; for ACAATTGAAT, 0.972; for CTCGTGCCTG, 0.994. For GTGAAACACC the value was 0.996; for CCCAGTATCA, 1.18; for CCTCTCATTC, 5.36. Take CGACGATTTT: the switch fluorescence ratio turned out to be 1.04.

As for GCTAACGGTG, the switch fluorescence ratio was 1.05. For AAATAGAGCG the value was 1.03; for TAGCCGTTGT, 1.04.

For the sequence CCCATGCGCA, the switch fluorescence ratio worked out at 1.05.

In the case of GAATCAAGAA, the switch fluorescence ratio is 0.989. For AGAGTCCCTA the value was 1.01; for CCGTCCGGCC, 1.3; for TACTTTGCAT, 1.26. With AAGCACGGAG the figure was 1.07.

For CGCGAAAACT, the switch fluorescence ratio was determined as 1.4. With AGGTACGGTA the figure was 1.04; with AGAGCTAGGT, 0.99. For ACTCTAGGGA the value was 1.03. For AGTGACTCGG the value was 1.01.

As for GGGGAGCAAC, the switch fluorescence ratio is 1.23. Regarding GTCAGGTGTC, the switch fluorescence ratio was determined as 1.71.

For the sequence TCCAAATGAG, the switch fluorescence ratio came out at 1.01. For GCCGTAAACT the value was 1.03; for GTTGCTAATA, 0.975; for TTCGAGCAC, 1.08. For TCTGAACTCA the value was 1.06. With CATTGCCTTC the figure was 1.07; with ACGTAACTCG, 1.19; with TCGTGGGCAA, 1.92. Turning to ATCCAAAGTG, the switch fluorescence ratio is 1.03. Turning to TAACCGCACG, the switch fluorescence ratio is 1.59. Turning to GGGGTTTAG, the switch fluorescence ratio worked out at 1. For GATTCACGC the value was 1.04.

Turning to CTGTTCTACA, the switch fluorescence ratio came to 0.987. Consider GTGAAGGTTT, for which the switch fluorescence ratio stood at 0.995. For TCTCCAAGCG the value was 1.13.

Consider TGCCTTGGCA, for which the switch fluorescence ratio turned out to be 1.04. With CGGGGCCTAT the figure was 0.994; with ACAACTTAAA, 0.981. For TCAAATTTGT the value was 1.01. With TTGAATTCTA the figure was 0.987; with AAAAGACAAA, 0.976. Consider CAACCTCAAG, for which the switch fluorescence ratio came out at 1.07. For TAGTAACATT the value was 1.04; for CTTGACCACG, 0.946; for ATAGGCAATT, 1.04. With CTCGGATTTA the figure was 0.983; with CCTCAGGGTC, 1.46. For ATTATGCTTG the value was 1.01; for AATGAGTCTC, 1.03; for CCGGATGTAA, 1.55.

Turning to TGCGTTTCAG, the switch fluorescence ratio is 0.953.

Turning to TGATTCGCAA, the switch fluorescence ratio was 3.74. With ACATCGGCAA the figure was 1.72. With TCACACCCCG the figure was 1.11; with CTACAACGCG, 0.994. For TATCAGCACT, the switch fluorescence ratio came to 1.06. With TGTGGTATCC the figure was 0.984; with TGTACCCAAC, 1.47. For TAGCATTATC the value was 1.89; for CTGGAACTGA, 1; for GCAAACACTC, 1.41. On to GGCTAAAAAT, for which the switch fluorescence ratio was 1.18.
